Biological target: mouse interleukin 21 (mouse, UniProt Q9ES17 18-146)
Assay: SPR (Biacore), biotinylated mIL-21 on streptavidin chip, purified VH injected from 4 µM down
Protocol: The affinities of VH clones G07 (anti-hTNF; SEQ ID NO: 5) and G11 (anti-mIL-21; SEQ ID NO: 6) were measured using surface plasmon resonance (using a Biacore machine; GE Healthcare). For this purpose, biotinylated antigen diluted in PBS was injected over a streptavidin (SA) sensor chip (Biacore AB). Serial dilutions of purified VH (with concentrations ranging from about 0.125 to 4 μM) were injected at a flowrate of about 20 μl/min over the flow cell containing the corresponding target antigen. Equilibrium dissociation constants were calculated using the BIAevaluation 4.1 software package (Biacore AB).
Two clones selected for their binding to human tumour necrosis factor (hTNF) or mouse interleukin 21 (mIL-21) were isolated from the Garvan-I libraries, as detailed above (see Materials and Methods section). […] Biacore affinity measurements of anti-human TNF clone G07 (SEQ ID NO: 5) and anti-mouse IL-21 clone G11 (SEQ ID NO: 6) were performed. Serial dilutions of each purified protein, starting at 4 μM, were run on a streptavidin (SA) chip coated with biotinylated hTNF and mIL-21, respectively.

B1: VHmIL21_G11 (anti-mIL-21 VH) (other, not shown: small tags and cut ends)
VH: QVQLLESGGGLVQPGGSLRLSCAASGFRISDEDMGWVRQAPGKGLEWVSSIYGPSGSTYYADSVKGRFTISRDNSKNTLYLQMNSLRAEDTAVYYCASASNTYEDMLGFWGQGTLVTVSS
notes: also called clone G11; anti-mouse IL-21 clone G11
**Q.** B1 was tested. Which Kd did it give?
**A.** The Kd was 4.07 µM.

Source: patent US20160145328A1 (published 2016)
